# In the supplement of paper PMC12632987:
# Over roughly 4,500 sequences, “median log2 fold change of GCK-ALFA target abundance (FLAG IP / Myc IP barcode read proportion)” has its median near 0.078; the lowest 2% begin near -0.6. Some of the results follow.
# B1: GBRAP_78_6648 (protein)
# chain: EVEELIDKALEHIDKASRLAQKLPEEERNELLAELTEAASYLLEAEENGFDLELLEEALKELKEALKLVEKLDHPEAPKIKEELEKAIKLVEEAIKLVKK
# B2: GBRAP_9_7175 (protein)
# chain: LKEAAKKAIEGLKEAKEFALEVVPEEKKEEINAAFDELIETVKKMQADDSVTKEEFRETLEKGFDKIIELAKKNLDPEIAAIVETELLTIKAEVDELLDE
# B3: GBRAP_52_5867 (protein)
# chain: MRERLRAALEEALALVKAGDEEGARALARELVASISEEEAEVLIEVAAELFATLAPEDLDAAWRLMEILAEAMEEAGFPEELVTLFEGEVGSAIAKREAA
# B4: GBRAP_128_3391 (protein)
# chain: SEEEKVEKAKELIDKIIEADEETARELAKELMELFGTLSKENREKVAEYFHEKLPELTAEKLDVVADVFREQRPKLDPYGQELVADMEVEALNEAEEKEE
# B5: GBRAP_52_6252 (protein)
# chain: MRARLRADAREILELVKEGREEEARRLAREIAETYNEEELRLFIDEFAALAAEAPKEDIDDVWRAAEILAEALEEAGWEEVLVDDALARTAAALVKVEAK
# B6: GBRAP_160_4562 (protein)
# chain: MEKVKALVDDLRADVEATLEATRDDSVEELAVALSGVIGSHAMEAAEDPRFSDEMVDILLAARDEITAYLAANRDASFEEIRAAILAIVDAAGAAMLAAA
# B7: GBRAP_160_4394 (protein)
# chain: EEEFEKLEKEINDIFEEAKKLIEGESPEERKVIIRVAFGEILMEVFSNEAVSDEQEEEFGKLLDEYEKKALEAVEKGLEAVLKVLDEARKEVLELIEKYK
# B8: GBRAP_128_3471 (protein)
# chain: AVEEARKRTEEIMEKMKEANDEEFKKLAEELAEWLLTLPVEEVEAAVEVIKEHLPELSAEKLEILADVLDKAMPKATPEKAALFADVRSEALLLAEEKEE
# B9: GBRAP_160_4318 (protein)
# chain: SEELEELKKEIREIAEEAERLIEGQSPEERLTIVRVALGEIVLLAVENPEISDELEDKIAEIADAAEAELRANPDLSEEEVKALLRKAVEEILKLIKEEE
# B10: GBRAP_160_4551 (protein)
# chain: SPFVDALVAHAREEVEEALALGAEVNPADALAVLRVAAGDVIMWAMEDPRATDEMEDAVAEVMDALIADFEANADAPMAEWRRLAAEHLAELRARLEALA
# B11: GBRAP_52_6353 (protein)
# chain: MRERMRRLVEEAVALALAGDEEGLRALAREIVETLSDEELRLLFEELARRARESDAETAEALLEVAEVLEDEMLKAGRDEFEASALLSDVGAAVYENLQR
# B12: GBRAP_125_3110 (protein)
# chain: SMEEILEALERLAKALGFSEEEAREAAELARRFSVKQTLYAIFLAEGEEELADLVEKLTEEQAIEALKELDEWLKKHPDASKEEVIKKAKEILEKQLAKQ
# B13: GBRAP_128_3472 (protein)
# chain: GVEEVRKWTKEVMEKMKTADDEEFRELATELAERLLTLPLEEVEAAVEVIKEHLPELTAEKLEILAEVLREARPQATPEKAALFADVESEALLLAEELEE
# B14: GBRAP_35_5511 (protein)
# chain: SSDETEVEMLVATIEDLVLAVPDLDVETAAAIAEQLLELARELAKELKNNPEALKRLAEAVERLLRAVREHYGDDPLAKETAERLEEALEEIRELLEKAK
# B15: GBRAP_78_6664 (protein)
# chain: KIEELLDKALEEIDKAARLTELLPEEDRNEVLGLLVDAASDIVEAEENGGDLELLEEAIKELKEAAKLLKKLKTPEAEKVLEEVEKALKYVEKAVKLKKK
# B16: GBRAP_52_6126 (protein)
# chain: MRERARALVEEMVALIRAGREEEARALAREAVATLDDEELELVAEELAELIRAASPEEQEYLERAAEILAEALEEAGRDEALADYVLARAAAALYEAELA
# B17: GBRAP_160_4216 (protein)
# chain: MELVDKLVKIVRDEFTEALELIEGESKEEQKVILDVAVGNVILEAMELPGVTDEMEETVEEMSEELAKKLLEMADKSKEEKLKLIEEMTAKLEEELKKLA
# B18: GBRAP_11_2910 (protein)
# chain: KEELLKKLAELAEELVEKLEELLEEGVEDEELLEEALELAEEALELAKENLDEADVELAEELVEELKEAMEDPETAEEHVEHALAIARVFLGQVLLAIEE
# B19: GBRAP_52_5908 (protein)
# chain: MREELRRIAEEMVAAVKAGNLEEARRIAREAVETLNDEELRLLIEEFAELVLEAPLEDLPYYFKAAEILAEEIERAGRDEVLADDLLNAVAAAAYQKEQA
# B20: GBRAP_74_6567 (protein)
# chain: SEELIKEIKEIAKNKSLLEFSNFILENIDKLDEEALLVAAEEFAKKIKEEKDTITEEELEKAAEAAAALADKAFQEDSSRETLKAMNELIAAVVEAEKSL
# B21: GBRAP_26_5441 (protein)
# chain: MDEIMDEAREKIVSLAETPEQKAGLATEMDNFEVEADEALEKMLKEGMSLEEFEAVLEEEKKEILETAKELGLSEETLKKIEEILNETKEKLLKLAKELR
# B22: GBRAP_139_3705 (protein)
# chain: SHLEEIVERARELTRRMREDREASLREIVALLASLDEEEAEAALEAIGEVLAEFPLDEAEELADELLELIEREIDDEDKRDIAEAVLNGALARHAYAEEL
# B23: GBRAP_52_5988 (protein)
# chain: MREEARRIAEELVELMLAGKREEAEKLIKEIVATKTPEQIKLIFEELARMAKEANPEEIDAIVEIAIILADAALEAGFDEAEVDDQLARVAAAAVEALKK
# B24: GBRAP_153_3943 (protein)
# chain: MEEEEKLLKEALELIEKIKKEGGKEELIRKLAKLIKELSEEQKLIVAKELNKLSEELVYKIFKVLATEEGFSVEELLEMTTELNLEHEAAALKAIVDAQK
# B25: GBRAP_78_6726 (protein)
# chain: ELEELLDKALEKVNKAAKLLLTLPLELSEEPLGELVDAASDLEEAIEEGGDLKYLEEALKHLEAAKKALEAKKNPELEPALKEVEEAIKLLKQAIKLAKK
# B26: GBRAP_83_6968 (protein)
# chain: AEEVAVVTTPDHVDAAIDAAIDLAEEEGKKVTVVLVGDPEGVIAAAKKVAEATKDLPNVEIEAVITNAREEEAERAERELKEIAEKYGKKLTFHADLIPP
# B27: GBRAP_35_5610 (protein)
# chain: DFEEETAEMLVAFIEDLTLAVPDVDVATLVAMTNSAVDTAREVAEEHKDNLEALEKLRKAMEKLLEALKKHHGDDPEAAAAIARVEETIKYIEELIKEAK
# B28: GBRAP_128_3215 (protein)
# chain: STEEAVERVRELLERIKESDEEEAREIAEELAELILSLSLEEAEAAREAIEELLPELTEEQLDILMDAFAEASKETDTPVADVLADLAVAAGEEILEQEE
# B29: GBRAP_184_5175 (protein)
# chain: KVLEFDLEAADVAEARAQMAAIAAAVAGTNADVYIIVRIPELTVEMVRAILDGAAAIKAAGAATRITIHFEGDVDEEVADVALELAREAGINVVLALKEE
# Biological target: GABARAP, O95166
# Sequence (O95166 whole entry, the tested form may be a part): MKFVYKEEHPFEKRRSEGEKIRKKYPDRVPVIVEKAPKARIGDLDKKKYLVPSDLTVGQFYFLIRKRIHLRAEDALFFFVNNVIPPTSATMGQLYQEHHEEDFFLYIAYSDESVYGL
# Test: median log2 fold change of GCK-ALFA target abundance (FLAG IP / Myc IP barcode read proportion) (log2 ratio); each designed protein is fused to an ALFA-tag nanobody in HEK293 cells to bring the named protein to FLAG-tagged glucokinase (GCK); Myc marks an untargeted standard; higher = target protein stabilised (more abundant)
# Conditions: target protein: 3xFLAG-MCP-GCK-ALFA reporter; HEK293 landing pad (RPLP)
# How it was run: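 Binders fused to an ALFA nanobody were recombined as a library into HEK293 landing-pad cells, which were induced with 2 μg mL^−1 doxycycline and then transfected to express a FLAG-tagged target and a Myc-tagged standard. After 48 h, circular RNA barcodes recovered by anti-FLAG and anti-Myc immunoprecipitation of lysates were reverse transcribed, amplified and sequenced. Each binder's target abundance is the median log2 ratio of FLAG to Myc barcode read proportions, from barcodes present at ≥10^−7 in both replicates, binders carrying ≥3 barcodes per replicate, a 10^−6 pseudocount and pooled replicates.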
row,Binder,median log2 fold change
1,B1,0.0863
2,B2,0.286
3,B3,-0.0902
4,B4,0.184
5,B5,-0.272
6,B6,0.132
7,B7,-0.447
8,B8,0.298
9,B9,-0.019
10,B10,-0.491
11,B11,-0.183
12,B12,-0.0531
13,B13,0.00124
14,B14,-0.0467
15,B15,-0.271
16,B16,-0.267
17,B17,-0.0469
18,B18,-0.0133
19,B19,-0.00567
20,B20,-0.102
21,B21,0.0427
22,B22,-0.0201
23,B23,-0.289
24,B24,0.21
25,B25,0.191
26,B26,-0.0575
27,B27,0.102
28,B28,0.0632
29,B29,0.187
